Assay results reported in PubChem BioAssay AID651820 (National Center for Advancing Translational Sciences (NCATS), 2012).
Among all 340,000 compounds or so, about 12,000 (3.5%) were called active. The inconclusive results got no clear call from the source; some entries with a clear call stand among them for comparison. Calls follow the shape of the dose curve; as a rule, active = well fitted inhibition curve with a large enough effect; inconclusive = small, poorly fitted or top-dose-only effect, or another doubt; inactive = no such curve, though single readings can be large or run the other way. Potencies of inconclusive entries are left out as doubtful fits. Some structures have more than one record in an assay (separate samples or runs), and their calls can disagree.

Test: qHTS Assay for Inhibitors of Hepatitis C Virus (HCV)
Conditions: Huh7.5.1 HCVcc-Cre (HCVcc is cell-culture hepatitis C virus) infection, luciferase reporter, 44 h; activity change, negative = inhibition: at 41.8 µM (top of the series) unless noted
Outline: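 Seed cells (1,000/well) for 4 h; treat with compound and infect with HCVcc-Cre, moi about 0.5. Incubate 44 h, then detect luciferase activity.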
% is scaled to controls: 0 for no effect and ±100 for the full control effect; potency is read from the fitted curve at half-maximal effect; tags tell the direction and shape of the fitted curve.

SMILES | activity change, negative = inhibition | Potency
CC(CCc1ccccc1)NC(=O)c1ccc(Br)cc1 (stereo not drawn) | inactive: -19% | 
CSc1ccccc1-c1nnc(-c2ccccc2)o1 |  | active: 8.91 µM
Cc1ccc(-c2csc(NC(=O)C3=NN(c4ccccc4)C(=O)CC3)n2)cc1 |  | inconclusive [inhibitor, single point]
O=C(CSc1nc2ccccc2s1)N1c2ccccc2Sc2ccc(C(F)(F)F)cc21 |  | inconclusive [inhibitor, partial curve, poor fit]
Cn1cc(CNC(=O)C2CCC(=O)N(Cc3ccc(Cl)cc3)C2)cn1 (stereo not drawn) | inactive: 1.31% | 
Cc1c(Cc2ccc3c(c2)OCO3)sc(NC(=O)C(C)(C)C)c1C#N |  | active: 11.2 µM
COc1ccccc1CCNC(=O)C(=O)NCC1OCCCN1S(=O)(=O)c1cc(C)ccc1C (stereo not drawn) |  | inconclusive [inhibitor, partial curve, poor fit]
COc1ccc(/C=N/NC(=O)C2C(C=C(Cl)Cl)C2(C)C)c(OC)c1 (stereo not drawn) |  | inconclusive [inhibitor, partial curve]
CC1CCC(NC(=O)c2ccc(NS(=O)(=O)c3ccc4[nH]c(=O)[nH]c4c3)cc2)CC1 (stereo not drawn) | inactive: 24.7% | 
CC1CCCCC1NC(=O)CSc1nnc(CC(=O)Nc2ccccc2F)n1C (stereo not drawn) | inactive: 19.6% | 
COc1cccc(C(CNC(=O)c2ccc(Cl)c(S(=O)(=O)N3CCCC3)c2)N(C)C)c1 (stereo not drawn) |  | inconclusive [inhibitor, partial curve]
CCCCNc1ccc2c(c1)C1CC2CCN1C(=O)OCc1ccccc1 (stereo not drawn) |  | inconclusive [inhibitor, single point]
CC(C)n1cc(/C=C(\C#N)S(=O)(=O)c2ccccc2)c2ccccc21 |  | active: 8.91 µM
CCCOC(=O)c1ccc(NC(=O)Cc2cccs2)cc1 | inactive: 10.4% | 
CC(=O)NCC(=O)N(C)C(C(=O)Nc1ccc2c(c1)OCCO2)c1ccccc1 (stereo not drawn) |  | inconclusive [inhibitor, single point]
Cc1cc(C(=O)N/N=C/c2cc(Br)cc(Br)c2OC(=O)c2cccc(F)c2)n[nH]1 |  | inconclusive [inhibitor, partial curve]
COc1ccc2nc(Sc3c([N+](=O)[O-])nc(C)n3Cc3ccccc3)[nH]c2c1 |  | inconclusive [inhibitor, single point]
CCC1C(=O)NCCN1C(=O)c1cccc(OC2CCN(S(=O)(=O)N(C)C)CC2)c1 (stereo not drawn) | inactive: 3.71% | 
COc1ccc(C(CNC(=O)c2cccc(NS(=O)(=O)c3ccc(C)c(F)c3)c2)N2CCCC2)cc1 (stereo not drawn) |  | inconclusive [inhibitor, partial curve, poor fit]
Clc1ccc(CN2CC[C@H]3C=CCc4cccc(c43)C2)cc1 | inactive: -20.2% | 
O=C(Nc1ccc2nn(-c3ccccc3)nc2c1)c1ccc2c(c1)OCCO2 |  | active: 7.08 µM
COC(CN(C(=O)CCl)C(C(=O)NC1CCCCC1)c1ccc(Cl)cc1)OC (stereo not drawn) | inactive: -7.63% | 
Cc1cc(OCc2cn3cccnc3n2)ccc1Cl |  | inconclusive [inhibitor, single point]

SMILES | activity change, negative = inhibition | Potency
COC(CNc1ncnc2sc(-c3ccccc3)cc12)OC |  | inconclusive [inhibitor, single point]
O=c1cc(CSc2ccc(Cl)cc2)nc(-c2ccccn2)[nH]1 |  | inconclusive [inhibitor, full curve]
CCCC(c1nnnn1Cc1cccs1)N1CCN(C2CCCC2)CC1 (stereo not drawn) |  | inconclusive [inhibitor, partial curve, poor fit]
COCCCC/C(=N\OCCN)c1ccc(C(F)(F)F)cc1 |  | active: 15.8 µM
c1ccc2c(N3CCCCC3)nc(N3CCOCC3)nc2c1 |  | inconclusive [inhibitor, partial curve]
COC(=O)C1=C(c2ccc(OC(F)(F)F)cc2)C[C@@H]2CC[C@H]1N2C(=O)NCc1cc(C)oc1C(F)(F)F |  | inconclusive [inhibitor, full curve]
COc1ccc(OCc2n(CC(=O)OC3CC(C)CCC3C(C)C)c3ccccc3[n+]2C)cc1 (stereo not drawn) |  | inconclusive [inhibitor, single point]
CCOc1cccc(C(=O)N2CCCCC2c2cccnc2)c1 (stereo not drawn) | inactive: 3.02% | 
O=C(NC1CC1)C1CCN(C2CCN(C(=O)CC3=CCCCC3)CC2)CC1 | inactive: -4.01% | 
CCN(CC)c1ccc(NC(=O)CN2C(=O)CSc3ncccc32)c(C)c1 |  | active: 3.55 µM
Cc1ccc(S(=O)(=O)c2c(C)cc(C)nc2N2CCCCC2)cc1 |  | inconclusive [inhibitor, single point]
CCc1nn(C(C)C(=O)NCCc2ccccc2)c(=O)c2cc3occc3n12 (stereo not drawn) | inactive: -29.2% | 
COc1cccc(C2=CC(=O)C[C@H](c3ccc(Cl)cc3)C2)c1 | inactive: -4.42% | 
Cc1nn(CCc2nn[nH]n2)c2nc(-c3ccc(C4CCCCC4)cc3)cc(C(F)(F)F)c12 |  | inconclusive [inhibitor, single point]
CCOc1cc(S(=O)(=O)NCCc2ccccc2C)c(OCC)cc1-n1cnnn1 |  | inconclusive [inhibitor, partial curve]
CC1CC(C)C(=O)C(C(CC2CC(=O)NC(=O)C2)OC(=O)CC(=O)c2ccccc2)C1 (stereo not drawn) |  | active: 5.01 µM
CCOc1cc(N2CCOCC2)c(OCC)cc1NC(=O)CCS(=O)(=O)c1ccc(Cl)cc1 |  | inconclusive [inhibitor, full curve, poor fit]
CCN(Cc1ccccc1)C1CCN(Cc2ccc(SC)cc2)CC1 |  | active: 7.08 µM
O=C(c1ccco1)N1N=C(c2ccc(Br)cc2)CC1c1ccco1 (stereo not drawn) |  | inconclusive [inhibitor, single point]
CCCOc1ccccc1C1CC(=O)NC2=C1C(=O)CCC2 (stereo not drawn) |  | inconclusive [inhibitor, full curve, poor fit]
CCOC(=O)Cc1nnc(NC(=O)c2cccc(OCC)c2)s1 |  | inconclusive [inhibitor, full curve, poor fit]
COc1ccc(OCC(=O)Nc2ccc(N3CCOCC3)c(Cl)c2)cc1 |  | active: 10 µM
O=C(NCc1ccc(Cl)cc1)c1cc2c(nc3sccn32)s1 |  | inconclusive [inhibitor, single point]

SMILES | activity change, negative = inhibition | Potency
Clc1ccccc1Nc1nc(-c2cccnc2)cs1 |  | inconclusive [inhibitor, single point]
CCn1c(CCNC(=O)c2ccco2)nc2ccccc21 |  | inconclusive [inhibitor, single point]
CC1CC(C)CN(S(=O)(=O)c2cccc(C(=O)N3CCN(c4ccc(F)cc4)CC3)c2)C1 (stereo not drawn) |  | inconclusive [inhibitor, single point]
O=C(CC1C(=O)NCCN1Cc1ccccc1C(F)(F)F)NC1CCC1 (stereo not drawn) |  | inconclusive [inhibitor, single point]
CCOC(=O)N1CCN(C(=O)CNC(=O)c2nn(-c3ccc(OC)c(Cl)c3)c(=O)c3ccccc23)CC1 |  | inconclusive [inhibitor, partial curve]
CCOc1ccc(NC(=O)CNC(=O)c2cccs2)cc1 | inactive: 11.5% | 
CCOC(=O)c1c(NC(=O)CC(C)C)sc(C(C)=O)c1C |  | inconclusive [inhibitor, partial curve]
CCC(C)(C(=O)NC1CCCC1)N(C(=O)c1ccccn1)c1ccc(C)cc1 (stereo not drawn) |  | inconclusive [inhibitor, partial curve, poor fit]
CC(C)N1CCSC1=S | inactive: 20.7% | 
Cc1ccc(N(CC(=O)Nc2cc(C)cc(C)c2)S(=O)(=O)c2c(C)noc2C)cc1 |  | inconclusive [inhibitor, single point]
C=CCn1c(=O)n2ncnc2c2c3c(sc21)CCCC3 |  | inconclusive [inhibitor, single point]
O=C1CCCN2N=C(SCC(=O)Nc3ccc(Br)cc3)SC2=N1 | inactive: 2.91% | 
O=C(N/N=C/c1cc(Cl)cc([N+](=O)[O-])c1O)c1ccccc1NS(=O)(=O)c1cccs1 |  | inconclusive [inhibitor, single point]
C/C(CC(=O)Nc1ccc(Cl)cc1Cl)=N\NC(=O)C(=O)N1CCCC1 |  | inconclusive [inhibitor, single point]
COC(=O)[C@]1(Cc2ccccc2)N[C@H](CN(C)C(=O)Nc2ccc(C(F)(F)F)cc2)[C@@H]2C(=O)N(Cc3ccccc3)C(=O)[C@@H]21 |  | active: 12.6 µM
Cc1ccc(Nc2nc3ccccc3[nH]2)nc1 |  | inconclusive [inhibitor, full curve, poor fit]
CCCC(=O)N1CCN(c2ccc(NC(=O)c3ccc(N4CCCC4)c([N+](=O)[O-])c3)cc2Cl)CC1 |  | inconclusive [inhibitor, single point]
C(=C\c1nc(N2CCCC2)c2ccccc2n1)/c1ccccc1 |  | inconclusive [inhibitor, partial curve]
O=C(CSc1nc(-c2ccccc2)nc2c1Cc1ccccc1O2)Nc1ccc(C(=O)O)cc1 |  | inconclusive [inhibitor, partial curve, poor fit]
CN(Cc1ccccc1)C(=O)CCC1CCN(S(C)(=O)=O)CC1 | inactive: -6.26% | 
COc1cc2cc(CN(CCc3ccccc3C)C(=S)NCCCN3CCOCC3)c(=O)[nH]c2cc1OC |  | inconclusive [inhibitor, single point]
Cc1cccc(-n2nnc(C(=O)Nc3ccc(F)cc3)c2N)c1 |  | inconclusive [inhibitor, partial curve]
